Experimental data published in a collection of fitness landscapes (doi:10.1016/j.celrep.2020.107928).
In all, about 81,000 sequences were measured (“one-hybrid fitness for binding NBS DNA”: median about -0.1, highest 2% from about 0.36 on). The list shows a part of the results.

B1: Caulobacter ParB omega fusion; a variant is named by its letters at X, in order, B8GW30 (parent)
chain: MESVVVGEPGMSEGRRGLGRGLSALLGEVDAAPAQAPGEQLGGSREAPIEILQRNPDQPRRTFREEDLEDLSNSIREKGVLQPILVRPSPDTAGEYQIVAGERAWRAAQRAGLKTVPIMVRELDDLAVLEIGIIENVQRADLNVLEEALSYKVLMEKFERTQENIAQTIGKSXSHVANXMRLLXLPDEVQSYLVSGELTAXHARAIAAAADPVALAKQIIEGGLSVRETEALARKAPNLSAGKSKGGRPPRVKDTDTQALESDLSSVLGLDVSIDHRGSTGTLTITYATLEQLDDLCNRLTRGI

Variants of: B1
Assay: one-hybrid fitness for binding NBS DNA (the Noc-binding site; scaled: cognate 1, non-cognate 0); higher = stronger binding
Conditions: with NBS DNA site
Outline: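 Bacterial one-hybrid selection in E. coli USO rpoZ- hisB- pyrF- with a HIS3 reporter carrying the site 19 bp from the promoter, screening Caulobacter ParB libraries with four specificity codons randomised (NNS). Cells grew 48 hours at 37°C on M9-minus-histidine plus 0.1 mM IPTG and 5 mM 3-AT. Plasmids before and after selection were Illumina-sequenced, three replicate libraries pooled, and variants under 10 reads dropped. Fitness is the log change in variant-to-wild-type read ratio, rescaled to cognate 1, non-cognate 0.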

one-hybrid fitness for binding NBS DNA, 0.257:
RCRV

one-hybrid fitness for binding NBS DNA, ≤ 0.2:
RFDT
PACG
MMTF
MQGT
QGKC
QSVK
HQPM
FYAL
SDLL
PYKG
RNCT
DGTC
TLGD
GGRL
AYAC
QVNV
GMSC
TWYF
HPFG
WTDK
RCEP
SVVV
TLIL
THRP
KTKA
HPLY
HSNS
TMLK
GHKA
YEPM
AKHY
QSYY
LMMS
HVRK
WITR
QDHV
CPAE
LMEF
RLTG
QFKL
YTFA
PNSG
PPAT
NCAA
RLFI
WHYG
LFPR
SRPK
VHAL
PMPC
ELML
TGLD
QFGC
SRKG
THCC
CGSC
RAVM
MLQG
GRKT
PESS
WRNA
DCVG
QKLL
RNIF
LRLR
RRWE
CTMC
KFPV
KSRA
NEYN
RIFG
QLQF
PTFC
LHPS
VGPT
SSQM
SKDI
QWRY
DTHF
TVKG
PRWA
KQGK
RDDY
YTAN
NPYL
YDNA
KYVI
LSSM
MSGS
RCNG
AMRR
VNVS
RWMP
ATKK
PASE
TIIS
RFVP
YAMK
VLVT
RCDD
PQAM
EFSG
VRYF
SFTN
MSPV
MYFT
RFQW
VKKW
RFDL
QLTC
ESRY
SGHA
KLKV
REEE
QRYP
PFAQ
QVCQ
YHTC
PFHM
VCVL
MQSI
MKAS
VSEN
PAKQ
RFGE
PVSG
HMVR
KARY
PSMD
PFRT
HHGG
FFGC
RAWK
VMIR
SMSR
YVSA
ARDM
IICT
VQSI
FNCR
ANTG
VHVT
CSFG

one-hybrid fitness for binding NBS DNA, 0.396:
RYKH

one-hybrid fitness for binding NBS DNA, 0.402:
QCDR

one-hybrid fitness for binding NBS DNA, 0.255:
RVMS

one-hybrid fitness for binding NBS DNA, 0.637:
QMNR

one-hybrid fitness for binding NBS DNA, 0.513:
TPVR

one-hybrid fitness for binding NBS DNA, 0.577:
QKKA

one-hybrid fitness for binding NBS DNA, 0.297:
QTHN
GVCS

one-hybrid fitness for binding NBS DNA, 0.311:
RGRS
